Drawing on patent US20170226204A1 (PERONGEN BIOTHERAPEUTICS SUZHOU, published 2017), this text covers Kd for two molecules.

In the experiment the target is T1, human CD7 molecule (human, UniProt P09564 26-240).
T1 construct: whole, on cells; also called CD7 protein
T1 sequence (looked up): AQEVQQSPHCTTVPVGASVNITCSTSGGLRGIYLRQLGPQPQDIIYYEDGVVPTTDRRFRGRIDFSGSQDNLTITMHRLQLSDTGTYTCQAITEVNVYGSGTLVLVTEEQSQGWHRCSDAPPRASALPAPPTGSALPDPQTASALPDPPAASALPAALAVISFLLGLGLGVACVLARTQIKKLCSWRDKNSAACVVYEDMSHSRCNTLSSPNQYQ
Description: flow cytometry saturation binding on CD7-positive Jurkat cells, APC anti-HA detection. (In general: A flow cytometer gives signals particle by particle.)

As usually defined, the Kd is the equilibrium constant for the complex coming apart. A higher Kd goes with a looser complex.

B1: nanobody VHH-10 (clone 2) (VHH, not shown: small tags and cut ends)
VHH: DVQLQESGGGSVQAGGSLRLSCAASGYTHSSYCMAWFRQAPGREREGVASIDSDGTTSYADSVKGRFTISQDNAKNTLYLQMNSLKPEDTAMYYCAARFGPMGCVDLSTLSFGHWGQGTQVTVSI
notes: also called clone VHH-10
Molecule B1 came in with a Kd of 29.6 nM.

B2: nanobody VHH-6 (clone 5) (VHH, not shown: small tags and cut ends)
VHH: DVQLQESGGGLVQAGGSLRLSCAVSGYPYSSYCMGWFRQAPGKEREGVAAIDSDGRTRYADSVKGRFTISQDNAKNTLYLQMNRMKPEDTAMYYCAARFGPMGCVDLSTLSFGHWGQGTQVTVSI
notes: also called clone VHH-6; parental nanobody VHH6
Molecule B2 yielded an equilibrium dissociation constant (Kd) of 15.4 nM.
